We go through 1 molecule from the supplement of paper PMC8728848.

Holding throughout (test): glycan array binding signal (z-score within array); higher = stronger binding
What all share (conditions): glycan notation: IUPAC condensed, linker removed

In experiment [1] the target is GlcNAc(b1-2)[GlcNAc(b1-6)]Man(a1-6)[GlcNAc(b1-2)Man(a1-3)]Man(b1-4)GlcNAc(b1-4)[Fuc(a1-6)]GlcNAc. The essentials:
(§1)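 The Consortium for Functional Glycomics database supplied 3228 glycan arrays, of which those lacking an available protein sequence were dropped. The binding signal, a within-array Z-score, was averaged across arrays of the same protein sequence and across linkers. Negative scores can be read as non-binding.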

The target in experiment [2] is GlcNAc(b1-2)[GlcNAc(b1-6)]Man(a1-6)[GlcNAc(b1-4)][GlcNAc(b1-2)Man(a1-3)]Man(b1-4)GlcNAc(b1-4)GlcNAc. The essentials:
as §1

The target of experiment [3] is GlcNAc(b1-3)Fuc. The essentials: as §1
In experiment [4] the target is GlcNAc(b1-3)Gal. The essentials:
as §1

For experiment [5], the target named is GlcNAc(b1-3)Gal(b1-3)GalNAc. The essentials: as §1
Experiment [6] addresses GlcNAc(b1-3)Gal(b1-4)Glc. The essentials: as §1
Experiment [7] addresses GlcNAc(b1-3)Gal(b1-4)GlcNAc. The essentials:
as §1

The target in experiment [8] is GlcNAc(b1-3)Gal(b1-4)GlcNAc(b1-2)Man(a1-3)[GlcNAc(b1-3)Gal(b1-4)GlcNAc(b1-2)Man(a1-6)]Man(b1-4)GlcNAc(b1-4)GlcNAc. The essentials:
as §1

Experiment [9] has as its target GlcNAc(b1-3)Gal(b1-4)GlcNAc(b1-2)Man(a1-3)[GlcNAc(b1-3)Gal(b1-4)GlcNAc(b1-2)Man(a1-6)]Man(b1-4)GlcNAc(b1-4)[Fuc(a1-6)]GlcNAc. The essentials:
as §1

The target in experiment [10] is GlcNAc(b1-3)Gal(b1-4)GlcNAc(b1-2)[GlcNAc(b1-3)Gal(b1-4)GlcNAc(b1-6)]Man(a1-6)[GlcNAc(b1-3)Gal(b1-4)GlcNAc(b1-2)Man(a1-3)]Man(b1-4)GlcNAc(b1-4)GlcNAc. The essentials: as §1
The target of experiment [11] is GlcNAc(b1-3)Gal(b1-4)GlcNAc(b1-3)Gal(b1-4)GlcNAc. The essentials: as §1
Experiment [12] addresses GlcNAc(b1-3)Gal(b1-4)GlcNAc(b1-3)Gal(b1-4)GlcNAc(b1-2)Man(a1-3)[GlcNAc(b1-3)Gal(b1-4)GlcNAc(b1-3)Gal(b1-4)GlcNAc(b1-2)Man(a1-6)]Man(b1-4)GlcNAc(b1-4)GlcNAc. The essentials:
as §1

Experiment [13] concerns the target GlcNAc(b1-3)Gal(b1-4)GlcNAc(b1-3)Gal(b1-4)GlcNAc(b1-2)Man(a1-3)[GlcNAc(b1-3)Gal(b1-4)GlcNAc(b1-3)Gal(b1-4)GlcNAc(b1-2)Man(a1-6)]Man(b1-4)GlcNAc(b1-4)[Fuc(a1-6)]GlcNAc. The essentials: as §1
The target in experiment [14] is GlcNAc(b1-3)Gal(b1-4)GlcNAc(b1-3)Gal(b1-4)GlcNAc(b1-2)[GlcNAc(b1-3)Gal(b1-4)GlcNAc(b1-3)Gal(b1-4)GlcNAc(b1-6)]Man(a1-6)[GlcNAc(b1-3)Gal(b1-4)GlcNAc(b1-3)Gal(b1-4)GlcNAc(b1-2)Man(a1-3)]Man(b1-4)GlcNAc(b1-4)[Fuc(a1-6)]GlcNAc. The essentials: as §1
Experiment [15] deals with GlcNAc(b1-3)Gal(b1-4)GlcNAc(b1-3)Gal(b1-4)GlcNAc(b1-3)Gal(b1-4)GlcNAc(b1-2)Man(a1-3)[GlcNAc(b1-3)Gal(b1-4)GlcNAc(b1-3)Gal(b1-4)GlcNAc(b1-3)Gal(b1-4)GlcNAc(b1-2)Man(a1-6)]Man(b1-4)GlcNAc(b1-4)GlcNAc. The essentials: as §1
Experiment [16] deals with GlcNAc(b1-3)Gal(b1-4)GlcNAc(b1-3)Gal(b1-4)GlcNAc(b1-3)Gal(b1-4)GlcNAc(b1-2)Man(a1-3)[GlcNAc(b1-3)Gal(b1-4)GlcNAc(b1-3)Gal(b1-4)GlcNAc(b1-3)Gal(b1-4)GlcNAc(b1-2)Man(a1-6)]Man(b1-4)GlcNAc(b1-4)[Fuc(a1-6)]GlcNAc. The essentials: as §1
Experiment [17] concerns the target GlcNAc(b1-3)Gal(b1-4)GlcNAc(b1-3)Gal(b1-4)GlcNAc(b1-3)Gal(b1-4)GlcNAc(b1-2)[GlcNAc(b1-3)Gal(b1-4)GlcNAc(b1-3)Gal(b1-4)GlcNAc(b1-3)Gal(b1-4)GlcNAc(b1-6)]Man(a1-6)[GlcNAc(b1-3)Gal(b1-4)GlcNAc(b1-3)Gal(b1-4)GlcNAc(b1-3)Gal(b1-4)GlcNAc(b1-2)Man(a1-3)]Man(b1-4)GlcNAc(b1-4)[Fuc(a1-6)]GlcNAc. The essentials:
as §1

For experiment [18], the target named is GlcNAc(b1-3)Gal(b1-4)GlcNAc(b1-3)Gal(b1-4)GlcNAc(b1-3)Gal(b1-4)GlcNAc(b1-3)Gal(b1-4)GlcNAc(b1-2)Man(a1-3)[GlcNAc(b1-3)Gal(b1-4)GlcNAc(b1-3)Gal(b1-4)GlcNAc(b1-3)Gal(b1-4)GlcNAc(b1-3)Gal(b1-4)GlcNAc(b1-2)Man(a1-6)]Man(b1-4)GlcNAc(b1-4)GlcNAc. The essentials:
as §1

Experiment [19] has as its target GlcNAc(b1-3)Gal(b1-4)GlcNAc(b1-3)Gal(b1-4)GlcNAc(b1-3)Gal(b1-4)GlcNAc(b1-3)Gal(b1-4)GlcNAc(b1-2)Man(a1-3)[GlcNAc(b1-3)Gal(b1-4)GlcNAc(b1-3)Gal(b1-4)GlcNAc(b1-3)Gal(b1-4)GlcNAc(b1-3)Gal(b1-4)GlcNAc(b1-2)Man(a1-6)]Man(b1-4)GlcNAc(b1-4)[Fuc(a1-6)]GlcNAc. The essentials: as §1

The other results are listed elsewhere or left out.

B1: MGL1 (Mus musculus), P49300 (protein)
chain: MIYENLQNSRIEEKTQEPGKAPSQSFLWRILSWTHLLLFSLGLSLLLLVVVSVIGSQNSQLRRDLGTLRATLDNTTSKIKAEFQSLDSRADSFEKGISSLKVDVEDHRQELQAGRDLSQKVTSLESTVEKREQALKTDLSDLTDHVQQLRKDLKALTCQLANLKNNGSEVACCPLHWTEHEGSCYWFSESEKSWPEADKYCRLENSHLVVVNSLEEQNFLQNRLANVVSWIGLTDQNGPWRWVDGTDFEKGFKNWAPLQPDNWFGHGLGGGEDCAHITTGGPWNDDVCQRTFRWICEMKLAKES
With B1, the “glycan array binding signal (z-score)” value in experiment [1] was 0.083; in [2], -0.349; in [3], 0.112; in [4], -0.398; in experiment [5], -0.423; in [6], -0.059. The “glycan array binding signal (z-score)” value in experiment [7] is 0.138; in experiment [8], -0.821; in experiment [9], -0.068; in experiment [10] it was -0.035; in experiment [11], -0.131; in [12], 0.529. The “glycan array binding signal (z-score)” value in experiment [13] is 0.033; in experiment [14], 1.01; in experiment [15] it was -0.233; in [16] it was -0.262; in experiment [17], 0.778; in [18] it was 0.039. Besides, the “glycan array binding signal (z-score)” value in [19] was -0.209.
